# Results published in PubChem BioAssay AID360 (National Center for Advancing Translational Sciences (NCATS), 2006).
# The campaign covered roughly 48,000 compounds. About 550 (1.1%) were called active. Inconclusive results, whose numbers are uncertain, are shown with a selection of clear calls. Rule as the data show it: active = potency below about 15 µM; inconclusive = mostly about 16 µM to 33 µM; inactive = weaker than that. Potencies of inconclusive entries are left out as doubtful fits.
# Biological target: Lysosomal acid glucosylceramidase (Homo sapiens) (UniProt P04062)
# Test: Glucocerebrosidase;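 also: the screen sought inhibitors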
# Settings: purified enzyme, resorufin glucoside fluorescence (screen aimed at inhibitors), 20 min
# Method in brief: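 Wild-type enzyme at 0.2 nM final in 50mM citric acid/KH2PO4, 10mM sodium taurocholate, 0.01% tween-20, pH 5.9, with resorufin beta-D-glucopyranoside at 30 uM final. Compounds titrated, 20 min at RT, red fluorescence read; AC50 from titration.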
# Potency is read from the fitted curve at half-maximal effect.
# UniProt P04062, sequence (P04062 whole entry, looked up): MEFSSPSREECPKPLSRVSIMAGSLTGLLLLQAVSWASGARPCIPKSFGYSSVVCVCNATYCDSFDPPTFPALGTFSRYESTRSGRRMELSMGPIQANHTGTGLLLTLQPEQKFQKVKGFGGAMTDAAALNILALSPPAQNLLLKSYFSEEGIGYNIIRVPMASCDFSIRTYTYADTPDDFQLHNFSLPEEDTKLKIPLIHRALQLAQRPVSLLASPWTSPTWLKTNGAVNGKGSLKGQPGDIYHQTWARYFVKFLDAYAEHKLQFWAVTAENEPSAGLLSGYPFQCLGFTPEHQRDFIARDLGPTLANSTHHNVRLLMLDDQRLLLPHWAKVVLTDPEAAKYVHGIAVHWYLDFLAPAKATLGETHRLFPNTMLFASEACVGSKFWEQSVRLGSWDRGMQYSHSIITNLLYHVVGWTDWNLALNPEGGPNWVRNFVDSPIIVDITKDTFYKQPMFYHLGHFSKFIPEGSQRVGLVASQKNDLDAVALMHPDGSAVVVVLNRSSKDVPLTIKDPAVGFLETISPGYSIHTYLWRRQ
row,SMILES,Potency
1,CCCCOc1ccc(C(O)(CCC)CCN2CCOCC2)cc1 (centres undefined),inconclusive [decreasing]
2,O=C(Nc1ccc2c(c1)OCCO2)C1CCN(c2cnccn2)CC1,inactive: > 76.9 µM
3,CCOC(=O)CCc1c(C)nc(SCCCn2c(=O)[nH]c3ccccc32)c(C#N)c1C,inconclusive [increasing]
4,COc1cc(OC)cc(-c2nc3cc(C)ccc3o2)c1,inconclusive [increasing]
5,CCOCCCNCC(=O)NC1(C)C2CCC(C2)C1(C)C (centres undefined),inconclusive [decreasing]
6,c1ccc2oc(-c3nn4c(Cn5cnc6ccccc65)nnc4s3)cc2c1,inactive: > 76.9 µM
7,COc1ccc2[nH]c3nc(SC(C)C)nnc3c2c1,inactive: > 76.9 µM
8,CCOC(=O)C1=C(CNCCc2ccc(Cl)cc2)NC(=O)NC1c1ccc2c(c1)OCO2 (centres undefined),inconclusive [decreasing]
9,CN(Cc1ccccc1)c1nc2c(c(=O)n(C)c(=O)n2C)n1CCCc1ccccc1,inconclusive [increasing]
10,CCOc1cccc(NC(=O)C2CCCN(S(=O)(=O)c3ccc(OC)cc3)C2)c1 (centres undefined),inconclusive [decreasing]
11,COc1ccc(S(=O)(=O)N2CCCC(C(=O)Nc3ccc(NC(=O)c4ccccn4)cc3)C2)cc1 (centres undefined),inconclusive [decreasing]
12,CCC(C)(C)n1nnnc1C(c1ccc(OC)c(OC)c1)N1CCN(c2ccc(F)cc2)CC1 (centres undefined),inconclusive [decreasing]
13,CCNc1nc(CC)nc2c1oc1ccccc12,inactive: > 76.9 µM
14,O=C(Nc1ccc(OC(F)(F)F)cc1)C1=NCCN1,active: 1.99 µM
15,Cc1ccnc2ccc(-c3nc4ccccc4o3)cc12,inconclusive [increasing]
16,CCN1CCN(S(=O)(=O)c2cc(C)c(OC)cc2C)CC1,inactive: > 76.9 µM
17,CCn1c(NC(=O)Nc2ccccc2OC)nc2ccccc21,inconclusive [decreasing]
18,Brc1ccc(C2=Nn3c(nnc3-c3n[nH]c4c3CCC4)SC2)cc1,inconclusive [decreasing]
19,CC(=O)N1C(=O)C2(C(C#N)=C(N)Oc3n[nH]c(-c4ccccn4)c32)c2ccccc21 (centres undefined),inconclusive [decreasing]
20,CCCCOc1ccccc1NC(=O)Cn1c(-c2nonc2N)nc2ccccc21,inactive: > 76.9 µM
21,CCc1nnc(NC(=O)CSc2nnc(C3CCCCC3)n2-c2ccccc2)s1,inconclusive [decreasing]
22,NCC(O)COCCC12CC3CC(CC(C3)C1)C2 (centres undefined),inconclusive [decreasing]
23,COc1cccc(NS(=O)(=O)c2ccc3[nH]cc(C(=O)NCCC(C)C)c(=O)c3c2)c1,inconclusive [decreasing]
24,CCCC1C(c2ccccc2)C(C#N)(C#N)C2(C#N)CC1(N)NC2=O (centres undefined),inconclusive [decreasing]
25,CCc1ccc(NC(=O)N(CCCN2CCOCC2)C(C)c2cc3cccc(OC)c3o2)cc1 (centres undefined),inconclusive [decreasing]

row,SMILES,Potency
1,Cc1[nH]c2ccccc2c1SCCNC(=O)c1ccc(Br)o1,inconclusive [decreasing]
2,CCCCNC1C(CC)C(CCC)C(C#N)(C#N)C1(C#N)C#N (centres undefined),inconclusive [decreasing]
3,O=C(Nc1cccnc1)c1ccc(COc2ccccc2Br)o1,inconclusive [decreasing]
4,Cc1nc2ccc(NC(=O)N3CCSCC3)cc2nc1C,inconclusive [decreasing]
5,COc1ccc2[nH]c(=O)c(C(c3nnnn3CC3CCCO3)N3CCc4ccccc4C3)cc2c1 (centres undefined),active: 14.2 µM
6,COCCn1nnnc1C(C(C)C)N(Cc1ccccc1)Cc1cc2cc(OC)ccc2[nH]c1=O (centres undefined),inactive
7,COC(=O)c1c[nH]n2c(=O)c(Cc3ccc(F)cc3Cl)c(C)nc12,inconclusive [decreasing]
8,COc1cccc(C(=O)Nc2ccc(NC(=O)C3CC3)cn2)c1,inactive: > 76.9 µM
9,CC1Cc2ccccc2N1C(=O)C1CCCN1S(=O)(=O)c1ccc(Cl)cc1 (centres undefined),inactive: > 76.9 µM
10,Cc1ccc(C)c(N2CCN(C(=O)CCCn3c(=S)[nH]c4cc5c(cc4c3=O)OCO5)CC2)c1,active: 15 µM
11,O=C(O)c1ccc(S(=O)(=O)c2ccc3c(c2)C(=O)N(Cc2ccco2)C3=O)cc1,inactive: > 76.9 µM
12,CC(C)(C)C1CCc2c(sc(N)c2C(N)=O)C1 (centres undefined),inconclusive [decreasing]
13,CC(=O)Nc1cccc(Cn2cccn2)c1,inactive: > 76.9 µM
14,CCCc1cc(=O)n2[nH]c(-c3ccccc3)cc2n1,inconclusive [decreasing]
15,Cc1nn(-c2ccccc2)c(Cl)c1C1C(C#N)=C(N)OC2=C1C(=O)CC(C)(C)C2 (centres undefined),inconclusive [decreasing]
16,Cc1[nH]c2ccccc2c1C(O)CN1CCN(c2cccc(C(F)(F)F)c2)CC1 (centres undefined),inconclusive [decreasing]
17,CN(CC(=O)Nc1cccnc1)S(=O)(=O)c1cc(Cl)ccc1Cl,inconclusive [decreasing]
18,Cc1ccc(S(=O)(=O)NCCCOC(=O)Nc2ccncc2)cc1,active: 8.86 µM
19,O=C(Nc1ccncc1)C1COc2ccccc2O1 (centres undefined),inactive
20,CCOc1ccc(S(=O)(=O)N2CCc3ccccc3C2)cc1,inactive: > 76.9 µM
21,O=C(Nc1nnc(SCC(=O)N2CCCCC2)s1)C1CCCCC1,inconclusive [decreasing]
22,COc1ccc(-c2cc(C(F)(F)F)nc(SCCC(=O)N3CCN4CCCC4C3)n2)cc1 (centres undefined),inconclusive [decreasing]
23,O=C(Cn1cnc2ccccc2c1=O)c1ccc2c(c1)OCCO2,inactive: > 76.9 µM
24,CC(C)c1ccc(-c2nc3c([nH]2)c(=O)n(C)c(=O)n3C)cc1,inconclusive [decreasing]
